We go through six molecules from publication PMC6453939.

The chains behind the UniProt entries cited, without tags or fusion partners. Where a name states a change or a piece, a line headed by the entry shows the natural chain unless it says otherwise. A line that says so, or that is headed by a name, gives the form on record, which may keep a tag or linker.
UniProt Q12846: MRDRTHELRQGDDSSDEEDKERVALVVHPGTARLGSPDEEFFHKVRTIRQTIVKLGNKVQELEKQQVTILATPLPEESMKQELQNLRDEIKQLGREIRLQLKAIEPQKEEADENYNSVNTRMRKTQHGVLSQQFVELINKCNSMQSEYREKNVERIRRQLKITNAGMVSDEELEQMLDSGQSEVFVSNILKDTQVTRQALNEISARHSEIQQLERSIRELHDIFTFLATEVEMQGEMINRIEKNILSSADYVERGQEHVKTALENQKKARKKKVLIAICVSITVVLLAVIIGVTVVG
Vps13B (human (endogenous in HeLa)) (Q7Z7G8-2, form named): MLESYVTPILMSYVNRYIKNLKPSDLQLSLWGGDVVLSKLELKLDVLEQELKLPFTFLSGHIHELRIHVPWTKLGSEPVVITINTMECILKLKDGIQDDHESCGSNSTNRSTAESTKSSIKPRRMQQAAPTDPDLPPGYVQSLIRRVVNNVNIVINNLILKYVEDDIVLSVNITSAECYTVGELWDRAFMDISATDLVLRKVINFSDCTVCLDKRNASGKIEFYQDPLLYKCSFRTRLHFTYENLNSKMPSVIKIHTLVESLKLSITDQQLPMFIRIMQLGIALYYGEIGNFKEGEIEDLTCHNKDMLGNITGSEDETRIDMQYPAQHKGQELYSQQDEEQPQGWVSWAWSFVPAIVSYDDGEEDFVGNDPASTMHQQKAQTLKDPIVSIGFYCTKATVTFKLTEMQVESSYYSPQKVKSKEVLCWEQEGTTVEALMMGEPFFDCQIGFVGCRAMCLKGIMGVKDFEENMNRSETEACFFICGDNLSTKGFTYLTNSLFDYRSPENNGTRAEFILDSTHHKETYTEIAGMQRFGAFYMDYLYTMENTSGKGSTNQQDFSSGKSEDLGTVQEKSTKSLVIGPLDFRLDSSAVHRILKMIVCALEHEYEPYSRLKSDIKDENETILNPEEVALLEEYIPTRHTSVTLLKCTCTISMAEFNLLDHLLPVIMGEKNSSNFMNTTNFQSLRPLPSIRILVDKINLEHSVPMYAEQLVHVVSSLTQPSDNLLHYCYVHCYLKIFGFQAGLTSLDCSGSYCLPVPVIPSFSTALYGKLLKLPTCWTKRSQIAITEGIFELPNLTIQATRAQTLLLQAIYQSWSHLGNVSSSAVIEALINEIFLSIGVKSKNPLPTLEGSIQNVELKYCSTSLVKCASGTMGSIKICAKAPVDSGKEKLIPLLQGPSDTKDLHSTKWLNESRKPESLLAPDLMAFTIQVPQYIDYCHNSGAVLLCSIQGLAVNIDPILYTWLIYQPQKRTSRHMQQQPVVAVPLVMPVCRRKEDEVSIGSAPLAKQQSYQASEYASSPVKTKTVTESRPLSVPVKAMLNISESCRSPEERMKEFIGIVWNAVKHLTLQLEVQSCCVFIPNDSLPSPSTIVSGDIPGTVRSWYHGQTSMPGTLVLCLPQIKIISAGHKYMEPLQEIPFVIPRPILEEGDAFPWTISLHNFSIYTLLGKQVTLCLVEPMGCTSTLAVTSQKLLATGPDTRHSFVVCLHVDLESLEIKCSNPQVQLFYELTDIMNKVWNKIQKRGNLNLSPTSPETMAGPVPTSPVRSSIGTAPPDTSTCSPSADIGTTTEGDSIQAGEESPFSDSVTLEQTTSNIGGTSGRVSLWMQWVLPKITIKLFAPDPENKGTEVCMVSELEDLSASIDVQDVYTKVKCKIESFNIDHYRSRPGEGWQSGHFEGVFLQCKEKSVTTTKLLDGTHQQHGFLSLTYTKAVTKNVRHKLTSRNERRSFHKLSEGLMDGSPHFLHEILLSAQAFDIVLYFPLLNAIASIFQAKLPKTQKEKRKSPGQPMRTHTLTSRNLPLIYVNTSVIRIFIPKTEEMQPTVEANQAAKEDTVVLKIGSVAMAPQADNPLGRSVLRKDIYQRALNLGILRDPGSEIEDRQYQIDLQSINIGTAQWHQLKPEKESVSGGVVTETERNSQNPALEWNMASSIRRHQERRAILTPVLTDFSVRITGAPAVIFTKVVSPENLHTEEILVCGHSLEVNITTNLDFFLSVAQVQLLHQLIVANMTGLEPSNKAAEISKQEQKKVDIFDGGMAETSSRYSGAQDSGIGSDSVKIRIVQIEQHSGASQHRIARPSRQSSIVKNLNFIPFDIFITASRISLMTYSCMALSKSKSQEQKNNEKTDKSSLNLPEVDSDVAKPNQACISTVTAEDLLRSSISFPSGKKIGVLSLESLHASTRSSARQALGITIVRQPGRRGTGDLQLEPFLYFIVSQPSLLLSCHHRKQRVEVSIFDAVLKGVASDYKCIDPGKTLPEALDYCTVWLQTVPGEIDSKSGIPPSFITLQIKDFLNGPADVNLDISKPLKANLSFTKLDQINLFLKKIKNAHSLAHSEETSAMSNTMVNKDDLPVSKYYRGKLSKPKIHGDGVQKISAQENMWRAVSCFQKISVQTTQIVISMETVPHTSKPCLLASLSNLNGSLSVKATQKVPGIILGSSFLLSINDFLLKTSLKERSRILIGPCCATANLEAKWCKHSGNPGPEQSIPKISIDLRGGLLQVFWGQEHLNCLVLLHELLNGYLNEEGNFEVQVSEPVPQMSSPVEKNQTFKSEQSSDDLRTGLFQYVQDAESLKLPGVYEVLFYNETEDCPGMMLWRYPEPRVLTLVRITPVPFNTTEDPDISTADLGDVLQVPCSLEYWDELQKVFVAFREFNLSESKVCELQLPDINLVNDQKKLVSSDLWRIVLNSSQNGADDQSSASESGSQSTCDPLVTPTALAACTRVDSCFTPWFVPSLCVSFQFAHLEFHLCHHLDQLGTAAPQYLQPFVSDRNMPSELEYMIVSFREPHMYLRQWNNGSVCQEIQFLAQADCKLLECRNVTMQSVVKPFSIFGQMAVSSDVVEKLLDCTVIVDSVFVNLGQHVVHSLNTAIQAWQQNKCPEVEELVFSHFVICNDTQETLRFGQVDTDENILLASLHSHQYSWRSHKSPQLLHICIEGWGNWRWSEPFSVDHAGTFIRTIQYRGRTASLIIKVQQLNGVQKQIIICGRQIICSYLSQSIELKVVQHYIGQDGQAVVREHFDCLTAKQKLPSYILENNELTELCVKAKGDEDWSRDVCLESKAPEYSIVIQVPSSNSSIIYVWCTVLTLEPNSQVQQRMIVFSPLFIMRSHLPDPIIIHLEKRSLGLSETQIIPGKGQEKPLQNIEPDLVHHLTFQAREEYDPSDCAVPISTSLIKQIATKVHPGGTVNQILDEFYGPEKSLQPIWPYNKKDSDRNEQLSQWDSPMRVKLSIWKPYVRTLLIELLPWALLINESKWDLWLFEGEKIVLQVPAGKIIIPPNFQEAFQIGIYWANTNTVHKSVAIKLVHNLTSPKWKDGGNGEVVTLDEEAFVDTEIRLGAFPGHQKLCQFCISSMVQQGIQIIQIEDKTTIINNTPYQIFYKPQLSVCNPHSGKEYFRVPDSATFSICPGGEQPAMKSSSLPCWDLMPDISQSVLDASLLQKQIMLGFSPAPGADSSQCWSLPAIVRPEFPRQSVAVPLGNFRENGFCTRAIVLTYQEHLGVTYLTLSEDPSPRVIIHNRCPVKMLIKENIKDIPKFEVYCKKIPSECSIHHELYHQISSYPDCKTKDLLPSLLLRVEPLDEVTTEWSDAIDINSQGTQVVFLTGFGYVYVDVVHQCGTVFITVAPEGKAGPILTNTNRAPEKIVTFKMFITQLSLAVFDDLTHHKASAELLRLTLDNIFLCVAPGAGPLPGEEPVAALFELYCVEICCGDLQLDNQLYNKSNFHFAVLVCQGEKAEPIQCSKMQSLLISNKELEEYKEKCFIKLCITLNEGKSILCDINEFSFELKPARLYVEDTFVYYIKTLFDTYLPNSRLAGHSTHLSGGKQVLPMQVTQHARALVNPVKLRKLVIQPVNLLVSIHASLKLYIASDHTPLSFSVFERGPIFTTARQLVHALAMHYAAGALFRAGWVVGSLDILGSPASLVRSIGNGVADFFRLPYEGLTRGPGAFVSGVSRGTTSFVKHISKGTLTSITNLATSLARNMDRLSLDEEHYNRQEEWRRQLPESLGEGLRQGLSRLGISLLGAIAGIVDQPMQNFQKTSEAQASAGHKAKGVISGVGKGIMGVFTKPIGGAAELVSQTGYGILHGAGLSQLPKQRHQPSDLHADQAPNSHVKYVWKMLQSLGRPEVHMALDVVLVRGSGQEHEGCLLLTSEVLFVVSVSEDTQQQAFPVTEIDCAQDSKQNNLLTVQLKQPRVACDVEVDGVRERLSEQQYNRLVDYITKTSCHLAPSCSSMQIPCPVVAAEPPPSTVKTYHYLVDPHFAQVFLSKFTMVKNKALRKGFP
UniProt Q15075: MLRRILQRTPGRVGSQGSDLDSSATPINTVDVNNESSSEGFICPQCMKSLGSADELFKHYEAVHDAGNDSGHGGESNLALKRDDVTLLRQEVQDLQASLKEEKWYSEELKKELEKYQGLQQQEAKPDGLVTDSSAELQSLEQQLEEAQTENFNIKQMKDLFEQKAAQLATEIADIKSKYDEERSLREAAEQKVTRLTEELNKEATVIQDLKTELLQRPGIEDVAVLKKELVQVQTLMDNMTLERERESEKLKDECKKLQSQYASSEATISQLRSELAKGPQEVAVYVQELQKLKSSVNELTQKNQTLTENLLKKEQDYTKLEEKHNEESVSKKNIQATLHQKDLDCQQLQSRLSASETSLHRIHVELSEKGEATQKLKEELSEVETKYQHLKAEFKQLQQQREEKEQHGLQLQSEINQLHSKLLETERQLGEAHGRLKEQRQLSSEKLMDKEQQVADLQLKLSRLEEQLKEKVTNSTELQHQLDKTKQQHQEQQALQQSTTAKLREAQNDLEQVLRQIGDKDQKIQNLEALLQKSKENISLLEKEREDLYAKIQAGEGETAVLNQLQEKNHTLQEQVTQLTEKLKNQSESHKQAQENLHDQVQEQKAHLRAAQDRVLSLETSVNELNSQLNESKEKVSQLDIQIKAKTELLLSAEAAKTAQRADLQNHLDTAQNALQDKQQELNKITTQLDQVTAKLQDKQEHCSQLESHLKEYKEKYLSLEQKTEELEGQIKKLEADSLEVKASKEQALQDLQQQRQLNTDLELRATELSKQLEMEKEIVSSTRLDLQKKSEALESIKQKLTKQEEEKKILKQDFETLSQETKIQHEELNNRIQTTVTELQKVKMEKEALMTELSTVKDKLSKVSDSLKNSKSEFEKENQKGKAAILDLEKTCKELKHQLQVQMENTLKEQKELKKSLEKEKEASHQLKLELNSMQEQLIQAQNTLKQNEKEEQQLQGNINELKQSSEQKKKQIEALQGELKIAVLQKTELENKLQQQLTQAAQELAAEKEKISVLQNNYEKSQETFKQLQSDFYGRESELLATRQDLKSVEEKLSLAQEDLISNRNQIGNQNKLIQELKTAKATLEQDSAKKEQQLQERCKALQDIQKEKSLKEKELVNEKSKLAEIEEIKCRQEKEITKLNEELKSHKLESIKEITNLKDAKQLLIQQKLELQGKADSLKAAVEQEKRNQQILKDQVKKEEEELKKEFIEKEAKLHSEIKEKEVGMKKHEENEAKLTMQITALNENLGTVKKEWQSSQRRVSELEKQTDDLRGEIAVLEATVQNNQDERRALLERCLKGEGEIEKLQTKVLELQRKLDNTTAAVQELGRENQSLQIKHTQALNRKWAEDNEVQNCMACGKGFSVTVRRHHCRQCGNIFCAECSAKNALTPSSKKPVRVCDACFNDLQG

Where two headings read alike, the source gives them in different places. No constants are given. Whether binding was seen depends on the method and setting. For some assays here: In cells and extracts the contact can be indirect. Some entries that bind do so weakly or less than the wild type.

The target of test [1] is T1, syntaxin 6 (Stx6), full-length, reconstituted in liposomes (Rattus norvegicus) (UniProt Q63635).
T1 sequence: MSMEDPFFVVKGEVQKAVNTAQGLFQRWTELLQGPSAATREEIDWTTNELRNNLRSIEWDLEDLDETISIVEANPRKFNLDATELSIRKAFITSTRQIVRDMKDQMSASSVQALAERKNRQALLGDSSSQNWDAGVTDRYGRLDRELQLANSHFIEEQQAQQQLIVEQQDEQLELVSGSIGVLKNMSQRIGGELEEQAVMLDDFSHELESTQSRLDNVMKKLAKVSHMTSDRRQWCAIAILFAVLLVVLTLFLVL
Nature of the test: recruitment to proteoliposomes, immunoblot; SNARE-containing proteoliposomes incubated with HeLa cytosol (cell-free supernatant) 30 min at 37 °C; unbound protein separated by a flotation gradient or liposomes captured on streptavidin Dynabeads (methods); liposome fraction immunoblotted; protein-free liposomes as control; only the target purified.

Test [2] concerns the target T2, syntaxin 13 (Stx13), reconstituted in liposomes (Rattus norvegicus) (UniProt G3V7P1).
T2 sequence: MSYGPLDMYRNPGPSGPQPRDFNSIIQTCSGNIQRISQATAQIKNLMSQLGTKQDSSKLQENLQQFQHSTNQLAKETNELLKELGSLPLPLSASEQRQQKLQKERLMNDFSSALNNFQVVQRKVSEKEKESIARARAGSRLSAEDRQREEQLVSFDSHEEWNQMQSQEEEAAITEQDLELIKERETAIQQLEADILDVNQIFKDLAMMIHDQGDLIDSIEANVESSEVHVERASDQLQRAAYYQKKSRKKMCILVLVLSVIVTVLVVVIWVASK
The description is as above.

In test [3] the target is T3, Stx6 and Stx13 together in one liposome (Rattus norvegicus) (UniProt Q63635+G3V7P1).
T3 sequence 1: T1 sequence
T3 sequence 2: T2 sequence
Described as above.

For test [4], the target named is T4, syntaxin 6 (Stx6), HeLa cells (human (endogenous in HeLa)) (UniProt O43752).
T4 sequence: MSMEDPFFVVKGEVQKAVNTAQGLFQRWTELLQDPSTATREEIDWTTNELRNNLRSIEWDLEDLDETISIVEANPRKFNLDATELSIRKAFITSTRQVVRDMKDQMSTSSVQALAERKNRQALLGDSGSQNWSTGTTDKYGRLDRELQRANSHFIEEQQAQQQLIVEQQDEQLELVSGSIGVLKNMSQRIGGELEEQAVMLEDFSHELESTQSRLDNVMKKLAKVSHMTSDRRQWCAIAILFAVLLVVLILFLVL
Kind of test: co-IP; endogenous SNAREs (Stx6, Stx13, Stx16, Stx4) immunoprecipitated from HeLa detergent extracts; immunoblot for Vps13B. In general terms: A western blot detects proteins with antibodies after separation by electrophoresis.

The target of test [5] is T5, syntaxin 13 (Stx13), HeLa cells (human (endogenous in HeLa)) (UniProt Q86Y82).
T5 sequence: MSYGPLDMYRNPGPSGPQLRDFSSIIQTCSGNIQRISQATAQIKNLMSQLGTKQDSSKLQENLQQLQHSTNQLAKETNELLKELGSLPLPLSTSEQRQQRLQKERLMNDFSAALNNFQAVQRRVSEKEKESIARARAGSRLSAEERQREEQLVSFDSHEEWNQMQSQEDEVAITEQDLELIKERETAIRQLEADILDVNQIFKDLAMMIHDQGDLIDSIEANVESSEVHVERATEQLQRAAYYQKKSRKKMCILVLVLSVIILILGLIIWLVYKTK
The description is as above.

For test [6], the target named is T6, syntaxin 16 (Stx16), HeLa cells (human (endogenous in HeLa)) (UniProt O14662).
T6 sequence: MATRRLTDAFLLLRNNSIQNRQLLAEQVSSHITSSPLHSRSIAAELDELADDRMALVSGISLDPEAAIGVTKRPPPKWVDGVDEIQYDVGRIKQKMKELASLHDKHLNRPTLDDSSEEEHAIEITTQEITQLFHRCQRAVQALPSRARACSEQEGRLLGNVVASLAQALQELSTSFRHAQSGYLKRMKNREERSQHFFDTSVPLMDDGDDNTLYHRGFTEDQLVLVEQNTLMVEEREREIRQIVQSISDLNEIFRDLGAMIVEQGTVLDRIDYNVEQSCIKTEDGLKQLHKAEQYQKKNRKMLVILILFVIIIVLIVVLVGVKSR
The test is described as above.

Test [7] concerns the target syntaxin 4 (Stx4), HeLa cells (human (endogenous in HeLa)) (UniProt Q12846). The test is described as above.
The target in test [8] is Vps13B (human (endogenous in HeLa)) (UniProt Q7Z7G8). Nature of the test: co-IP; endogenous Vps13B immunoprecipitated from detergent extracts of HeLa cells (1% Triton X-100, 150 mM NaCl); immunoblot for SNAREs.
Test [9] addresses T4, syntaxin 6 (Stx6), HeLa cells (human (endogenous in HeLa)). Kind of test: co-IP; co-immunoprecipitation of Stx6 and Vps51 (Supplementary Fig. 3a); lysis buffer 50 mM Tris-HCl pH 7.4, 150 mM NaCl, 1% Triton X-100; antibody and bait not given.
The target in test [10] is T7, N-terminally truncated syntaxin 6 (ΔN-Stx6, residues 169–255), reconstituted in liposomes (Rattus norvegicus) (UniProt Q63635).
T7 sequence: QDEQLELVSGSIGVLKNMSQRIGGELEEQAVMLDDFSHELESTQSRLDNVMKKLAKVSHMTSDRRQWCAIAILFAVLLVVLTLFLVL
Nature of the test: recruitment to proteoliposomes, immunoblot; SNARE-containing proteoliposomes incubated with HeLa cytosol (cell-free supernatant) 30 min at 37 °C; unbound protein separated by a flotation gradient or liposomes captured on streptavidin Dynabeads (methods); liposome fraction immunoblotted; protein-free liposomes as control; only the target purified.

The target of test [11] is T1, syntaxin 6 (Stx6), full-length, reconstituted in liposomes (Rattus norvegicus). The test is described as above. This is another data set of the same source.

As to “EEA1 (early endosome antigen 1) (from UniProt Q15075 1-1411)”, the binding entry in [1], in [2] and in test [3] was “no binding” in each case.

Vps13B (from UniProt Q7Z7G8-2 1-3997): the binding result in [3] is recorded as “binds”; in test [4] it was “binds”; in [5], “binds”; in [6] it was “no binding”; in test [7], “no binding”.

B1: VAMP4, HeLa cells (protein, UniProt O75379 1-141)
chain: MPPKFKRHLNDDDVTGSVKSERRNLLEDDSDEEEDFFLRGPSGPRFGPRNDKIKHVQNQVDEVIDVMQENITKVIERGERLDELQDKSESLSDNATAFSNRSKQLRRQMWWRGCKIKAIMALVAAILLLVIIILIVMKYRT
As for B1, in test [8], the binding entry is “no binding”.

B2: syntaxin 6 (Stx6), HeLa cells (protein, UniProt O43752 1-255)
chain: T4 sequence
Consider B2, for which the binding entry in test [8] is “binds”.

B3: Vps51 (protein, UniProt Q9UID3 1-782)
chain: MAAAAAAGPSPGSGPGDSPEGPEGEAPERRRKAHGMLKLYYGLSEGEAAGRPAGPDPLDPTDLNGAHFDPEVYLDKLRRECPLAQLMDSETDMVRQIRALDSDMQTLVYENYNKFISATDTIRKMKNDFRKMEDEMDRLATNMAVITDFSARISATLQDRHERITKLAGVHALLRKLQFLFELPSRLTKCVELGAYGQAVRYQGRAQAVLQQYQHLPSFRAIQDDCQVITARLAQQLRQRFREGGSGAPEQAECVELLLALGEPAEELCEEFLAHARGRLEKELRNLEAELGPSPPAPDVLEFTDHGGSGFVGGLCQVAAAYQELFAAQGPAGAEKLAAFARQLGSRYFALVERRLAQEQGGGDNSLLVRALDRFHRRLRAPGALLAAAGLADAATEIVERVARERLGHHLQGLRAAFLGCLTDVRQALAAPRVAGKEGPGLAELLANVASSILSHIKASLAAVHLFTAKEVSFSNKPYFRGEFCSQGVREGLIVGFVHSMCQTAQSFCDSPGEKGGATPPALLLLLSRLCLDYETATISYILTLTDEQFLVQDQFPVTPVSTLCAEARETARRLLTHYVKVQGLVISQMLRKSVETRDWLSTLEPRNVRAVMKRVVEDTTAIDVQVGLLYEEGVRKAQSSDSSKRTFSVYSSSRQQGRYAPSYTPSAPMDTNLLSNIQKLFSERIDVFSPVEFNKVSVLTGIIKISLKTLLECVRLRTFGRFGLQQVQVDCHFLQLYLWRFVADEELVHLLLDEVVASAALRCPDPVPMEPSVVEVICERG
Regarding B3, the values for the binding result in test [9], in test [10] and in [11] were “binds”, “no binding” and “binds”, respectively.

B4: syntaxin 13 (Stx13), HeLa cells (protein, UniProt Q86Y82 1-276)
chain: T5 sequence
As for B4, in test [8], the binding result is “binds”.
